# Assay results reported in the supplement of paper PMC9513381.
# Positions count from the first letter of the chain named. Recombinant human monoclonal antibodies (heavy:light variable regions). ELISA EC50 on the named antigen, from 10 µg/ml down; IC50 / IC90 against spike pseudovirus on 293T-ACE2 cells, 48 h; lower = stronger. Calls: IC50 above 1,000 ng/ml = non-neutralizing; EC50 above 1,000 ng/ml = non-binder. The source prints 1000 for neutralization that was not reached; it is given as >1000 ng/ml. Only binders of the Wuhan-Hu-1 domain have neutralization values.
# B1: B1004 (protein)
# chain 1: QVQLQESGPGLLKPSETLSLTCTVSGGSVSSANFHWSWIRQPPGKGLEWIGNFFYSGSTNYNPSLKSRLTISVDTSKNQFSLKLTSVTAADTAVYYCARDTRYYDRSGYVRSDGMDVWGQGTTVTVSS
# chain 2: DIQMTQSPSTLSASVGDRVTITCRASQTISNWLAWYQQKPGQAPRLLIYEASTLERGVPSRFSGSGSGTEFTLTITGLQPDDFATYYCQQFDGDSVTFGQGTKLEIK
# B2: B1010 (protein)
# chain 1: QVQLVQSGAEVKKPGASVKVSCKAAGYTFTSSDINWVRQATGQGLEWMGWMNPNTGNTDYAQKFQGRVTMTRDTSISTAYMELSSLRSEDTAVYYCASRSLITMVREGIKYHYYVMDVWGPGTTVTVSS
# chain 2: DIVMTQSPLSLPVTPGEPASISCRSSQSLLHTNGYNYLDWYLQKPGQSPHLLIYLGSNRTSGVPDRFSGSGSGTDFTLKISRVEAQDVGVYYCMQALQTPPTFGPGTKVDIK
# B3: B2014 (protein)
# chain 1: QVQLVQSGAELKRPGASVKVSCKASGYTFSDYHMNWVRQAPGQGLEWMGIINPSGGGASYPQKFQGRVTMTRDTSTSTVFMQLNSLTYEDTAVYYCARGTPPSRGWYGGFDNWGQGTLVTVSS
# chain 2: QSVLTQPPSVSGAPGQRITISCTGSTSNIGAGYDVQWYQQLPGTAPKLLIFDNNNRPSGVPDRFSGSKSGTSASLAITGLQAEDEADYYCQSFDSTLSGSTFVFGPGTKVTVL
# B4: B1007 (protein)
# chain 1: QVQLVQSGAEVRKPGASVTVSCKASGYTFTNYYIHWARQAPGQGLEWMGMMNPSGGNTNYAQKFQGRVTMTRDTSTSTVYMELSSLRSEDTAVYYCARDRLMGYYDLWNAYGGMDVWGQGTTVTVSS
# chain 2: SYELTQPPSVSVAPGKTARITCGGNNIGIKSVHWYQQKSGQAPVLVMFSDRDRPSGIPVRFSGSNSGNTATLTISGVEAGDEADYYCQVWDNSSAWVFGGGTKLTVL
# B5: B1008 (protein)
# chain 1: QVQLVQSGAEVKKPGAPVKISCKASGYILTNHYIHWVRQAPGQGLEWMGMINPSGGSAHYAQNFQGRVTMTRDTSTSTVSMELSSLKSEDTAVYYCARDRLMGYYELWNAYGGMDVWGQGTTVTVSS
# chain 2: SYELTQPPSVSVAPGKTARISCGGNDIGSKRVHWYQQKPGLAPVLVIYYDGDRPSGIPERFSASNSGFTATLTISRVEAGDEADYYCQVWDNTSAWVFGGGSKLTVL
# B6: B1005 (protein)
# chain 1: QVQLVQSGAEVKKPGASVKVSCKASGDTFSNYAISWVRQAPGQGLEWMGNIIPMFDIATYAQKFQGRVTISADKSTSTAYMELSSLSSEDTAVYFCASLGNGITLVRGVPITDHHFDYWGQGTLVTVSS
# chain 2: QSVLTQPASVSGSPGQSITISCTGTSSDIGTYNLVSWYQQHPGKAPKLMIYEVSKRPSGVSNRFSGSKSGNTASLTISGLQAEDEADYYCCSYAASTTHWVFGGGTKLAV
# B7: B1006 (protein)
# chain 1: QVQLVQSGTEVKKPGASVKVSCMASGNSFSNYAISWVRQAPGQGLEWMGNIIPMFDIATYAQKFQGRVTISADKSTSKVFMDLNSLSSEDTGVYFCASLGNGITLVRGAPITDHHFDYWGQGALVTVSS
# chain 2: B6 chain 2 with T31S, V60M, S96G, K107T
# Biological target: SARS-CoV-2 Wuhan-Hu-1 spike pseudovirus
# Test: pseudovirus neutralization IC50; higher = weaker neutralization
# Description: (§1)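 Single-round luciferase reporter pseudovirus mixed with antibody dilutions and put on 293T-ACE2 cells for 48 h; signal relative to no-antibody wells, four-parameter fit.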
row,Binder,pseudovirus neutralization IC50
1,B1,0.0419 µg/mL
2,B2,0.0103 µg/mL
3,B3,0.0102 µg/mL
4,B4,0.913 µg/mL
5,B5,0.916 µg/mL
6,B6,0.0115 µg/mL
7,B7,0.00457 µg/mL

# Biological target: SARS-CoV-2 Wuhan-Hu-1 spike pseudovirus
# Test: pseudovirus neutralization IC90; higher = weaker neutralization
# Description: as §1
row,Binder,pseudovirus neutralization IC90
1,B1,0.448 µg/mL
2,B2,0.0738 µg/mL
3,B3,0.0557 µg/mL
4,B4,> 1 µg/mL
5,B5,> 1 µg/mL
6,B6,0.0626 µg/mL
7,B7,0.0285 µg/mL

# Biological target: SARS-CoV-2 Delta (B.1.617.2) spike RBD
# Test: ELISA binding EC50; higher = weaker binding; ELISA of recombinant human antibody on coated antigen, from 10 µg/ml in fourfold dilutions; four-parameter fit.
row,Binder,ELISA binding EC50
1,B1,0.00959 µg/mL
2,B2,0.0312 µg/mL
3,B3,0.0117 µg/mL
4,B4,0.0513 µg/mL
5,B5,0.0387 µg/mL
6,B6,0.353 µg/mL
7,B7,> 1 µg/mL

# Biological target: SARS-CoV-2 Omicron BA.1 spike protein
# Test: as above
row,Binder,ELISA binding EC50
1,B1,0.00679 µg/mL
2,B2,0.00249 µg/mL
3,B3,0.041 µg/mL
4,B4,0.0873 µg/mL
5,B5,0.0177 µg/mL
6,B6,> 1 µg/mL
7,B7,0.804 µg/mL

# Biological target: SARS-CoV-2 Wuhan-Hu-1 spike receptor-binding domain
# Test: as above
row,Binder,ELISA binding EC50
1,B1,0.00299 µg/mL
2,B2,0.00293 µg/mL
3,B3,0.00215 µg/mL
4,B4,0.0102 µg/mL
5,B5,0.0056 µg/mL
6,B6,0.00433 µg/mL
7,B7,0.0061 µg/mL
